# Experimental data: the supplement of paper PMC8728848
# The other results are listed elsewhere or left out.
# Legend:
# Test in all cases: glycan array binding signal (z-score within array); higher = stronger binding
# Conditions in all cases: glycan notation: IUPAC condensed, linker removed
# Fuc(a1-2)Gal = target: Fuc(a1-2)Gal
# How it was run: (§1)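 Glycan array data came from 3228 arrays in the Consortium for Functional Glycomics database, and only arrays with an available protein sequence were kept. Glycan names were put into IUPAC-condensed notation, and columns mapping to the same glycan were averaged. The binding signal is a within-array Z-score, averaged across arrays of one protein sequence run at different concentrations or buffers and across linkers. A negative Z-score can be read as non-binding.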
# Fuc(a1-2)Gal(b1-3)GalNAc = target: Fuc(a1-2)Gal(b1-3)GalNAc
# How it was run: as §1
# [1] = target: Fuc(a1-2)Gal(b1-3)GalNAc(b1-3)Gal
# How it was run: as §1
# [2] = target: Fuc(a1-2)Gal(b1-3)GalNAc(b1-3)Gal(a1-4)Gal(b1-4)Glc
# How it was run: as §1
# [3] = target: Fuc(a1-2)Gal(b1-3)GalNAc(b1-4)[Neu5Ac(a2-3)]Gal(b1-4)Glc
# How it was run: as §1
# Fuc(a1-2)Gal(b1-3)GlcNAc = target: Fuc(a1-2)Gal(b1-3)GlcNAc
# How it was run: as §1
# [4] = target: Fuc(a1-2)Gal(b1-3)GlcNAc(b1-2)Man(a1-3)[Fuc(a1-2)Gal(b1-3)GlcNAc(b1-2)Man(a1-6)]Man(b1-4)GlcNAc(b1-4)GlcNAc
# How it was run: as §1
# [5] = target: Fuc(a1-2)Gal(b1-3)GlcNAc(b1-3)Gal(b1-4)Glc
# How it was run: as §1
# [6] = target: Fuc(a1-2)Gal(b1-3)GlcNAc(b1-3)[Gal(b1-4)[Fuc(a1-3)]GlcNAc(b1-6)]Gal(b1-4)Glc
# How it was run: as §1
# [7] = target: Fuc(a1-2)Gal(b1-3)[Fuc(a1-4)]GlcNAc
# How it was run: as §1
# [8] = target: Fuc(a1-2)Gal(b1-3)[Fuc(a1-4)]GlcNAc(b1-2)Man(a1-3)[Fuc(a1-2)Gal(b1-3)[Fuc(a1-4)]GlcNAc(b1-2)Man(a1-6)]Man(b1-4)GlcNAc(b1-4)GlcNAc
# How it was run: as §1
# Fuc(a1-2)Gal(b1-4)Glc = target: Fuc(a1-2)Gal(b1-4)Glc
# How it was run: as §1
# Fuc(a1-2)Gal(b1-4)Glc6S = target: Fuc(a1-2)Gal(b1-4)Glc6S
# How it was run: as §1
# Fuc(a1-2)Gal(b1-4)GlcNAc = target: Fuc(a1-2)Gal(b1-4)GlcNAc
# How it was run: as §1
# [9] = target: Fuc(a1-2)Gal(b1-4)GlcNAc(b1-2)Man(a1-3)[Fuc(a1-2)Gal(b1-4)GlcNAc(b1-2)Man(a1-6)]Man(b1-4)GlcNAc(b1-4)GlcNAc
# How it was run: as §1
# [10] = target: Fuc(a1-2)Gal(b1-4)GlcNAc(b1-3)Gal(b1-4)GlcNAc
# How it was run: as §1
# [11] = target: Fuc(a1-2)Gal(b1-4)GlcNAc(b1-3)Gal(b1-4)GlcNAc(b1-3)Gal(b1-4)GlcNAc
# How it was run: as §1
# [12] = target: Fuc(a1-2)Gal(b1-4)GlcNAc6S
# How it was run: as §1
# [13] = target: Fuc(a1-2)Gal(b1-4)[Fuc(a1-3)]GlcNAc
# How it was run: as §1
# [14] = target: Fuc(a1-2)Gal(b1-4)[Fuc(a1-3)]GlcNAc(b1-2)Man(a1-3)[Fuc(a1-2)Gal(b1-4)[Fuc(a1-3)]GlcNAc(b1-2)Man(a1-6)]Man(b1-4)GlcNAc(b1-4)GlcNAc
# How it was run: as §1
# [15] = target: Fuc(a1-2)Gal(b1-4)[Fuc(a1-3)]GlcNAc(b1-3)Gal(b1-4)[Fuc(a1-3)]GlcNAc
# How it was run: as §1
# [16] = target: Fuc(a1-2)Gal(b1-4)[Fuc(a1-3)]GlcNAc(b1-3)Gal(b1-4)[Fuc(a1-3)]GlcNAc(b1-3)Gal(b1-4)[Fuc(a1-3)]GlcNAc
# How it was run: as §1
# Fuc(a1-2)Gal6S(b1-4)Glc = target: Fuc(a1-2)Gal6S(b1-4)Glc
# How it was run: as §1
# [17] = target: Fuc(a1-2)Gal6S(b1-4)Glc6S
# How it was run: as §1
# [18] = target: Fuc(a1-2)Gal6S(b1-4)GlcNAc
# How it was run: as §1
# Fuc(a1-2)[Gal(a1-3)]Gal = target: Fuc(a1-2)[Gal(a1-3)]Gal
# How it was run: as §1
# [19] = target: Fuc(a1-2)[Gal(a1-3)]Gal(b1-3)GlcNAc
# How it was run: as §1
# [20] = target: Fuc(a1-2)[Gal(a1-3)]Gal(b1-3)GlcNAc(b1-2)Man(a1-3)[Fuc(a1-2)[Gal(a1-3)]Gal(b1-3)GlcNAc(b1-2)Man(a1-6)]Man(b1-4)GlcNAc(b1-4)GlcNAc
# How it was run: as §1
# [21] = target: Fuc(a1-2)[Gal(a1-3)]Gal(b1-4)Glc
# How it was run: as §1
# [22] = target: Fuc(a1-2)[Gal(a1-3)]Gal(b1-4)GlcNAc
# How it was run: as §1
binder,measurement,setting,value
"Neuropilin-2 (Homo sapiens), O60462 (protein) MDMFPLTWVFLALYFSRHQVRGQPDPPCGGRLNSKDAGYITSPGYPQDYPSHQNCEWIVYAPEPNQKIVLNFNPHFEIEKHDCKYDFIEIRDGDSESADLLGKHCGNIAPPTIISSGSMLYIKFTSDYARQGAGFSLRYEIFKTGSEDCSKNFTSPNGTIESPGFPEKYPHNLDCTFTILAKPKMEIILQFLIFDLEHDPLQVGEGDCKYDWLDIWDGIPHVGPLIGKYCGTKTPSELRSSTGILSLTFHTDMAVAKDGFSARYYLVHQEPLENFQCNVPLGMESGRIANEQISASSTYSDGRWTPQQSRLHGDDNGWTPNLDSNKEYLQVDLRFLTMLTAIATQGAISRETQNGYYVKSYKLEVSTNGEDWMVYRHGKNHKVFQANNDATEVVLNKLHAPLLTRFVRIRPQTWHSGIALRLELFGCRVTDAPCSNMLGMLSGLIADSQISASSTQEYLWSPSAARLVSSRSGWFPRIPQAQPGEEWLQVDLGTPKTVKGVIIQGARGGDSITAVEARAFVRKFKVSYSLNGKDWEYIQDPRTQQPKLFEGNMHYDTPDIRRFDPIPAQYVRVYPERWSPAGIGMRLEVLGCDWTDSKPTVETLGPTVKSEETTTPYPTEEEATECGENCSFEDDKDLQLPSGFNCNFDFLEEPCGWMYDHAKWLRTTWASSSSPNDRTFPDDRNFLRLQSDSQREGQYARLISPPVHLPRSPVCMEFQYQATGGRGVALQVVREASQESKLLWVIREDQGGEWKHGRIILPSYDMEYQIVFEGVIGKGRSGEIAIDDIRISTDVPLENCMEPISAFAGENFKVDIPEIHEREGYEDEIDDEYEVDWSNSSSATSGSGAPSTDKEKSWLYTLDPILITIIAMSSLGVLLGATCAGLLLYCTCSYSGLSSRSCTTLENYNFELYDGLKHKVKMNHQKCCSEA",glycan array binding signal (z-score),Fuc(a1-2)Gal,-0.954
same,glycan array binding signal (z-score),Fuc(a1-2)Gal(b1-3)GalNAc,0.125
same,glycan array binding signal (z-score),[1],1.26
same,glycan array binding signal (z-score),[2],0.325
same,glycan array binding signal (z-score),[3],-0.01
same,glycan array binding signal (z-score),Fuc(a1-2)Gal(b1-3)GlcNAc,-0.234
same,glycan array binding signal (z-score),[4],1.05
same,glycan array binding signal (z-score),[5],-0.564
same,glycan array binding signal (z-score),[6],-0.248
same,glycan array binding signal (z-score),[7],0.065
same,glycan array binding signal (z-score),[8],1.92
same,glycan array binding signal (z-score),Fuc(a1-2)Gal(b1-4)Glc,-0.344
same,glycan array binding signal (z-score),Fuc(a1-2)Gal(b1-4)Glc6S,0.348
same,glycan array binding signal (z-score),Fuc(a1-2)Gal(b1-4)GlcNAc,0.311
same,glycan array binding signal (z-score),[9],3.21
same,glycan array binding signal (z-score),[10],0.165
same,glycan array binding signal (z-score),[11],0.294
same,glycan array binding signal (z-score),[12],-0.565
same,glycan array binding signal (z-score),[13],0.117
same,glycan array binding signal (z-score),[14],2.33
same,glycan array binding signal (z-score),[15],-0.074
same,glycan array binding signal (z-score),[16],0.415
same,glycan array binding signal (z-score),Fuc(a1-2)Gal6S(b1-4)Glc,0.667
same,glycan array binding signal (z-score),[17],0.796
same,glycan array binding signal (z-score),[18],-0.558
same,glycan array binding signal (z-score),Fuc(a1-2)[Gal(a1-3)]Gal,-0.182
same,glycan array binding signal (z-score),[19],0.323
same,glycan array binding signal (z-score),[20],-0.212
same,glycan array binding signal (z-score),[21],-0.106
same,glycan array binding signal (z-score),[22],-0.731
